# Experimental data reported in paper PMC6919601, “Identification of Plasmodium dipeptidyl aminopeptidase allosteric inhibitors by high throughput screening” (PLoS ONE, 2019).
# The whole screen tested about 110,000 compounds, of which about 230 (0.21%) showed an effect of 50% or more. Some of the results follow.
# Molecular target: DPAP1 (Plasmodium falciparum, UniProt Q8IIJ9)
# Assay: primary screen, percent inhibition; read by cleavage of a fluorogenic dipeptide substrate; higher = more effect of the substance
# Set-up: species or system P. falciparum D10 trophozoite lysates; single well
# 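Note: 30 min substrate incubation versus DMSO and 10 µM JCP410 controls.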
# Chain of DPAP1 (Q8IIJ9 whole entry, looked up): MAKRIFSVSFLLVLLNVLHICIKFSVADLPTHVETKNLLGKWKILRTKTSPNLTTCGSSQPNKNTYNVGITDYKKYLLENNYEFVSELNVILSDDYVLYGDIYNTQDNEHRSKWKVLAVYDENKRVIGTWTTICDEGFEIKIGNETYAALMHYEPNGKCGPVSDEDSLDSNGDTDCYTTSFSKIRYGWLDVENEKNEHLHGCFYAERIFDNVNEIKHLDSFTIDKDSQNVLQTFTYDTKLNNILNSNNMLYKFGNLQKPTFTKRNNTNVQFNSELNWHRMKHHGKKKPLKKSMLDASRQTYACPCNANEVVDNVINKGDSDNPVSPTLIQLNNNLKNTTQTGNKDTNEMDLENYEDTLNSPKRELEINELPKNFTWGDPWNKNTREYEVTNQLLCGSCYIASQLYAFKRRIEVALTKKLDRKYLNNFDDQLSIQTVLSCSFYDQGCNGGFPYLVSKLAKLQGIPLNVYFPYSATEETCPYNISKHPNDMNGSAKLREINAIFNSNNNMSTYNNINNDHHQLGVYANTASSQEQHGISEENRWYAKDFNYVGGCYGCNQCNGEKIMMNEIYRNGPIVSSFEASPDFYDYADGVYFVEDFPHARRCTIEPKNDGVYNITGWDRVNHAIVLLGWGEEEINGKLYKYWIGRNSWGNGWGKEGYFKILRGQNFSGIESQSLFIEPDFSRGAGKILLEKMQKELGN
row,Structure (SMILES),% Inhibition @ 10 uM [%]
1,COc1ccc(N2C(=O)c3ccccc3C2=O)c([N+](=O)[O-])c1,0.00178
2,O=C1O[C@@H]2C[C@H]3C[C@@H]2[C@@H]1[C@H]3C(=O)N1CCN(C(=O)c2ccco2)CC1,3.81
3,O=S(=O)(NCCc1csc(-c2cccnc2)n1)c1ccc(Oc2ccccc2)cc1,-0.72
4,CCc1ccc(OCCN2CCOCC2)cc1,-1.96
5,S=C(Cc1ccc(CC(=S)N2CCOCC2)cc1)N1CCOCC1,6.31
6,CC(=O)N1c2ccccc2C(c2ccccc2)(c2ccccc2)OC1C (centres unmarked),2.36
7,O=C1c2cccnc2C(=O)N1c1ccccc1-c1ccccc1,-2.29
8,COc1cc(OC)c(CN2CCCCCCC2)cc1Br,3.1
9,Cc1ccccc1OCC(=O)Nc1c(C)n[nH]c1C,-1.88
10,CN1C(C(=O)N2CCN(C(=O)c3ccco3)CC2)=CC(c2ccco2)=NS1(=O)=O,0.655
11,CCCN(CCC)C(=O)C(Cc1ccccc1)N1C(=O)C2C3C=CC(C3)C2C1=O (centres unmarked),1.12
12,CCOc1ccc(CCNC(=O)c2cnc(SC)nc2CC)cc1,12.7
13,CC(C)NC(=O)c1cc2n(n1)C(C(F)(F)F)CC(c1ccc(Br)cc1)N2 (centres unmarked),-4.69
14,O=[N+]([O-])c1cc2c(cc1CN1CCC(N3CCCCC3)CC1)OCO2,-7.18
15,CS(=O)(=O)N(CC(=O)NCc1ccccc1Cl)c1cc(C(F)(F)F)ccc1Cl,4.59
16,CCOC(=O)c1cnc2c(C#N)c(C)nn2c1-c1ccccc1,-2.14
17,CC1=NN(c2ccccc2)C(=O)/C1=C1/C(=O)Nc2ccc(Cl)cc21,2.33
18,CCOC(=O)C1=C(C)N=c2s/c(=C\c3ccc(C)o3)c(=O)n2C1c1ccc2c(c1)OCO2 (centres unmarked),9.09
19,COc1ccccc1C(=O)Nc1cccc(-c2nc3ccccc3o2)c1,-8.11
20,Cc1cccc2c1-c1sc(C(=O)N3CCc4ccccc4C3)cc1CO2,-3.08
21,O=C(CCc1ccccc1)NC1(C(F)(F)F)C(=O)Nc2c1c(=O)[nH]c(=O)n2Cc1ccccc1 (centres unmarked),2.38
22,Cc1cccc(Cn2c(CCNC(=O)c3ccco3)nc3ccccc32)c1,0.366
23,Cc1ccc(-c2cn3nc(N4CCC(C(=O)N5CCN(c6ncccn6)CC5)CC4)sc3n2)cc1,1.46
24,CC(=O)Cc1cccc2cccc(C(=O)O)c12,1.43
25,CCc1ccc(CNC(=O)c2ccc(CS(=O)(=O)Cc3ccc(C)cc3)o2)cc1,6.86
26,COc1ccc2c(c1)c(C(=O)N1CCCC1)c(C)n2Cc1ccccc1,-6.86
